In publication PMC9574860, “Chemical Toolkit for PARK7: Potent, Selective, and High-Throughput” (Journal of Medicinal Chemistry, 2022) one finds Inhibition % data, which are given here for 129 molecules.

About 400 (5.1%) of roughly 7,900 compounds showed an effect of 50% or more. The list shows a part of the results.

This assay deals with Parkinson's disease protein 7 (PARK7/DJ1) (human, UniProt Q99497). Kind of assay: primary screen, percent inhibition; read as competition with a fluorescent probe by fluorescence polarization; higher = more effect of the substance. The note with it: 100 µM. In short, it runs like this: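 Fluorescence-polarization probe displacement (JYQ-107, 20 nM final, 2 h) after 2 h preincubation of PARK7 (0.2 μM final) with each fragment at 100 μM final. Read-out ex/em 480/520 nm; remaining activity derived from FP signal loss relative to reference controls.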
Sequence of Parkinson's disease protein 7 (PARK7/DJ1) (Q99497 whole entry, looked up, the tested form may be a part): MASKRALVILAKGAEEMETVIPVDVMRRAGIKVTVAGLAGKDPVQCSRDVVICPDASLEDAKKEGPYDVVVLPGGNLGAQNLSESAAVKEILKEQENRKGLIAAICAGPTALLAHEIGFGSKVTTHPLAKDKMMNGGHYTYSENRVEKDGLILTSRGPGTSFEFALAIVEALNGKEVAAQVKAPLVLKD
Take `CC1CN(C(=O)C=Cc2cnn(C)c2)CC(C)O1` (stereo not drawn): the Inhibition % is 12.8%.
To `COc1ccc(C=C(C#N)S(C)(=O)=O)cc1` belongs 5.15%; to `Cc1c(Cl)ccc(S(=O)(=O)n2cccn2)c1Cl`, 2.22%; to `C=CC(=O)N1CC(C)(C)C1c1ccccc1` (stereo not drawn), 15.7%.
To `O=S(=O)(c1ccc(S)nc1)N1CCCCC1` belongs 7.61%; to `C=CC(=O)NCCC1CSc2ccccc2O1` (stereo not drawn), 1.16%; to `O=S(=O)(Nc1ccccc1-c1ncco1)C1=CCCCC1`, 6.78%.
With `N#CC(=Cc1ccccc1)C(=O)O` the figure was 0.493%; with `Cc1nc(N)ccc1B1OC(C)(C)C(C)(C)O1`, 3.19%.
As to `C=CC(=O)NC1(C)CCC(F)(F)CC1`, the Inhibition % is recorded as 8.52%.
For `O=C(Oc1ccc2ccccc2c1)N1CCOCC1`, the Inhibition % turned out to be 9.43%.
As for `CC(NC(=O)c1cccnc1S)C1CC1` (stereo not drawn), the Inhibition % stood at 2.03%.
With `NC(=O)C12CC3CC(CC(Cl)(C3)C1)C2` the figure was 4.19%; with `O=C(N1CCOCC1)n1ccnc1`, 4.09%; with `C=CC(=O)NCc1nc(C2CC2)n[nH]1`, 4.37%.
With `O=S(=O)(c1ccc(S)nc1)N1CCCCCC1`, the Inhibition % is 9.73%.
As to `O=S1(=O)C=CC(N=C=S)C1` (stereo not drawn), the Inhibition % amounted to 9.53%.
Consider `O=C1OCCC1N1CCC2(CCCCC2)CC1` (stereo not drawn), for which the Inhibition % is listed as 10.3%.
On to `N#Cc1c(NC(=O)CC2=CCCCC2)nc2n1CCS2`, for which the Inhibition % is recorded as 9.5%.
With `CC(C)(C)OC(=O)N1CCC2(CC1)CC2B1OC(C)(C)C(C)(C)O1` (stereo not drawn) the figure was -1.51%; with `Cc1nn(C)c(C)c1C1CCCN1C1CC(C)OC1=O` (stereo not drawn), 7.23%.
With `O=C(c1cccs1)N1CCCC(CS(=O)(=O)F)C1` (stereo not drawn) the figure was 90.1%.
With `CS(=O)(=O)c1ccccc1NC(=O)CCl` the figure was 11.4%.
On to `O=C(Oc1ccc(F)cc1)N1CCOCC1`, for which the Inhibition % was 29.6%.
To `COc1cc(C)c(Cl)cc1S(=O)(=O)n1ccnc1` belongs 0.774%; to `COc1ncncc1B1OC(C)(C)C(C)(C)O1`, 1.19%; to `COc1cccc(C#N)c1B1OC(C)(C)C(C)(C)O1`, 8.09%.
With `C=CC(=O)N1CCN(c2nnnn2-c2ccccc2)CC1` the figure was 3.12%; with `C=CC(=O)N1CCNC(=O)C1C` (stereo not drawn), 4.1%; with `CC(Cl)c1nc(-c2nnc[nH]2)no1` (stereo not drawn), 1.55%.
As for `N#Cc1cccc(NC(=O)NCCCl)c1`, the Inhibition % is 5.87%.
With `Cc1ccc(S(=O)(=O)F)cc1` the figure was 2.62%; with `C=CC(=O)N1CCCC1c1ccc(Cl)cc1` (stereo not drawn), 6.6%.
To `C=CC(=O)NCCC(=O)N1c2ccccc2CCC1C` (stereo not drawn) belongs 5.89%.
With `Cc1ccc(C=CC(=O)N2CCC(CN)C2)o1` (stereo not drawn), the Inhibition % is given as 0.775%.
Take `C#CCN(c1cnc(C#N)cn1)C1CCCC1`: the Inhibition % was determined as 1.73%.
As for `O=C(CCl)NCc1cccs1`, the Inhibition % worked out at 3.94%.
In the case of `O=S(=O)(F)C1CCc2ccccc21` (stereo not drawn), the Inhibition % came to 11.8%.
In the case of `C=CC(=O)N1CCC12CCOC2` (stereo not drawn), the Inhibition % stood at 7.06%.
Consider `Cc1cc(SC#N)cc(C)c1NC(=O)CCl`, for which the Inhibition % came to 4.28%.
With `C=CC(=O)NCC1CC(=O)N(c2ccc(Cl)cc2)C1` (stereo not drawn) the figure was 4.09%; with `C=CC(=O)NC1CC(C)OC(C)C1` (stereo not drawn), 17.4%.
To `O=S(=O)(F)CCn1ccc(-c2cccs2)n1` belongs 21.7%; to `C=CC(=O)Nc1nc2cnccn2n1`, 23%; to `Nc1ccc(S(=O)(=O)F)cc1`, 5.99%.
With `C=CC(=O)N1CCN(C2CC2)c2c(C)cccc21` the figure was 2.24%.
On to `CC1(C)OB(c2cccc(F)c2)OC1(C)C`, for which the Inhibition % turned out to be 5.09%.
`CC1NC(=O)CCC1NC(=O)c1cccc(C#N)n1` (stereo not drawn): the Inhibition % is recorded as 9.45%.
Consider `C=CC(=O)N1CCOCC1CNS(C)(=O)=O` (stereo not drawn), for which the Inhibition % is reported as 7.08%.
With `C=CC(=O)N1CCOCC(C)C1` (stereo not drawn) the figure was 6.12%; with `C=CC(=O)N1CCCCC1c1ccc(F)cn1` (stereo not drawn), 0.15%; with `CC1C(=O)NC1c1ccccc1` (stereo not drawn), 0.897%.
With `C=CC(=O)Nc1nc(C2CCOCC2)cs1` the figure was 14.5%.
With `Nc1nccnc1S` the figure was 26.8%; with `C=CC(=O)N1CCOCC1c1ccco1` (stereo not drawn), 5.49%; with `O=S1(=O)C=CC(c2ccccc2)C1` (stereo not drawn), 12.1%.
For `N#Cc1cc(N)ncn1`, the Inhibition % is 7.87%.
To `O=C(CCl)NCc1cccc(F)c1` belongs 11.2%; to `C=CC(=O)NC(C(=O)O)c1csc(Br)c1` (stereo not drawn), 10.4%.
Take `C=CC(=O)N1CCCc2c(F)cccc21`: the Inhibition % was 7.24%.
To `O=C1CNC(=O)N1CCCl` belongs 8.82%; to `COCCOc1ccc(B(O)O)cc1`, 1.59%; to `Cl.ClCCCc1cn[nH]c1`, 2.68%.
To `C=CC(=O)N1CC(C)(C)O[C@@]2(C[C@@H]3CC[C@H]2C3)C1` belongs 10.3%; to `O=C(NCc1ccccn1)N1CCCC(C2OCCO2)C1` (stereo not drawn), 14.3%.
In the case of `CN1CCN(C(=O)CCCl)CC1.Cl`, the Inhibition % worked out at 5.12%.
Turning to `CCC1CCCCN1C(=O)Cn1cnc(C#N)n1` (stereo not drawn), the Inhibition % is 11.1%.
To `CCCN(c1cc(C#N)ncn1)C1CC1` belongs 5.8%.
To `N#Cc1ccc(S(N)(=O)=O)cn1` belongs 7.37%; to `COc1ccc(C)cc1S(=O)(=O)Oc1ccccn1`, 17%; to `Cc1cccc(NC(=O)NC2C(=O)OCC2(C)C)n1` (stereo not drawn), 7.98%.
With `C=CC(=O)N1CCOCC1CC(F)F` (stereo not drawn) the figure was 17%; with `O=S(=O)(C=Cc1ccccc1)N1CCN2CCCC2C1` (stereo not drawn), 13.3%; with `Cc1nc(C#N)c(N2CCN(C(=O)CCl)CC2)o1`, 38.4%.
As to `O=C(CCl)N1CCN(c2cccc(C(F)(F)F)c2)CC1`, the Inhibition % was found to be 47.9%.
For the molecule `CC(C)NC(=O)C(C#N)=Cc1ccc(CO)cc1`, the Inhibition % is listed as 2.67%.
With `C=CC(=O)N1CC(CCOC)C1` the figure was -2.91%.
Regarding `CN1CCC(CNc2ccc(C#N)nc2)CC1`, the Inhibition % was 1.29%.
`CC1CCN(C(=O)C=Cc2cn(C)c(=O)n(C)c2=O)CC1`: the Inhibition % is given as 10.9%.
In the case of `CN(Cc1cccnc1)C(=O)n1ccnc1`, the Inhibition % is reported as 10.8%.
To `COc1cc(S(=O)(=O)n2cccn2)ccc1F` belongs 1.65%; to `CC(C)C1NC(=O)C12CCSCC2` (stereo not drawn), 0.524%; to `O=C(N1CCC(c2ccccc2)C1)n1ccnc1` (stereo not drawn), 9.92%.
Take `C=CC(=O)NCc1ccc(C2CC2)cc1`: the Inhibition % worked out at 11.7%.
In the case of `C=CC(=O)Nc1cc(S(=O)(=O)N(C)C)ccc1Cl`, the Inhibition % was determined as 6.55%.
To `CCn1nc(-c2ccc(F)cc2)oc1=O` belongs 11.7%.
To `O=C(N1CCOCC1)n1nnc2ccccc21` belongs 3.38%; to `C=CC(=O)NC1CCCN(C2CCCCC2)C1` (stereo not drawn), 6.89%.
To `CC1(C)OB(c2cccc3scnc23)OC1(C)C` belongs 3.85%.
`C=CC(=O)N1CCCC1COc1cccnc1C` (stereo not drawn): the Inhibition % amounted to 6.12%.
With `O=C(CCl)N1CCc2sccc2C1` the figure was 83.6%; with `c1ncc(C2OCCO2)s1`, 38.6%.
Turning to `C=CC(=O)N1CCC(c2cccc(C)c2)C1` (stereo not drawn), the Inhibition % was 1.91%.
`CS(=O)(=O)OCC1CCOCC1`: the Inhibition % turned out to be 20%.
To `Cc1nnnn1Cc1ccc(S(=O)(=O)F)cc1` belongs 18.2%.
With `CC(C)c1ccc(C(C)NC(=O)CCl)cc1` (stereo not drawn) the figure was 6.77%.
On to `O=C(CCCl)N1CCN(c2ccccn2)CC1`, for which the Inhibition % was found to be 12.9%.
To `O=C1CCCC(CCl)N1` (stereo not drawn) belongs 9.47%.
For the molecule `C=CC(=O)NC1C2CCOC2C12CCC2` (stereo not drawn), the Inhibition % amounted to 8.04%.
In the case of `C=CC(=O)N(C)Cc1c(C)nn(C)c1Cl`, the Inhibition % is given as 12.5%.
With `Cn1nccc1-c1csc(CN2C(=O)CCC2=O)n1` the figure was 13.4%.
With `N#CN(CC(=O)N1CCCCCC1)c1ccc(F)cc1` the figure was 6.88%; with `O=C(CCl)Nc1ccc2[nH]c(=O)[nH]c2c1`, 34.3%.
Regarding `OC1(CC2CO2)CCOC1` (stereo not drawn), the Inhibition % was 9.69%.
For the molecule `N#Cc1ncn(CC(=O)c2ccccc2F)n1`, the Inhibition % was 8.61%.
For `O=C(C1CCOCC1)N1CCC(S(=O)(=O)F)C1` (stereo not drawn), the Inhibition % is reported as 19.5%.
Take `FC(F)(F)c1ccccc1OCC1CO1` (stereo not drawn): the Inhibition % is 11.7%.
With `Cc1ccc(C)c(Sc2ccc(NC(=O)CCl)cc2)c1` the figure was 37%; with `Cc1ccc(C#N)c(B2OC(C)(C)C(C)(C)O2)c1`, 8.89%.
To `CCOc1cc(C=CC#N)ccc1OC` belongs 0.489%.
With `Cl.ClCCc1c[nH]nn1` the figure was 10.9%; with `OB(O)c1ccccc1OCc1ccc(F)cc1Cl`, 7.79%; with `C=CCn1c(C)cc(C(=O)CCl)c1C`, 58.7%.
`CCn1cc(NS(=O)(=O)C=Cc2ccccc2)cn1`: the Inhibition % turned out to be 81.4%.
For the molecule `Cc1ccc(CN2CC(S(=O)(=O)F)C2)o1`, the Inhibition % is listed as 9.92%.
With `N#Cc1cccc(N2CC(CC(F)F)C2)n1` the figure was 7.52%.
With `C=CC(=O)N1CC(S(=O)(=O)c2ccccc2F)C1` the figure was 5.39%.
As to `CC(C)(C)c1cnc(Cn2cnc(C#N)n2)o1`, the Inhibition % stood at 0.984%.
Turning to `C=CC(=O)N1CCC(C(F)(F)F)c2ccccc21` (stereo not drawn), the Inhibition % is 11%.
With `CC1CCCN(C(=O)C=Cc2cn(C)c(=O)n(C)c2=O)C1` (stereo not drawn) the figure was -7.83%.
With `COC(=O)c1c(F)cccc1NS(=O)(=O)C1=CCCCC1` the figure was 11.2%.
On to `CSc1ccc(Cn2cnc(C#N)n2)cc1`, for which the Inhibition % is recorded as 4.13%.
To `C=CC(=O)Nc1ccc2c(c1)NC(=O)CS2` belongs 11.9%; to `CCOC(=O)N1CCC(NC(=O)CCl)CC1`, 8.38%; to `CN1C(=O)SC(Nc2ccc(F)c(Cl)c2)C1=O` (stereo not drawn), 19.3%.
To `Cc1nc2c(C(=O)Nc3cccc(S(=O)(=O)F)c3)cccc2o1` belongs 43.6%.
With `C=CC(=O)N1CCC(C2CCC2)C1` (stereo not drawn) the figure was 11.7%; with `COc1cccc(NC2C=CS(=O)(=O)C2)c1` (stereo not drawn), 4.85%.
Take `Cc1nn(C)c(Cl)c1Cn1c(-c2ccccc2)noc1=O`: the Inhibition % was determined as 3.8%.
